# ± gives the standard deviation of the averaged measurements. This is one part of the list.
# Tested on: PfAP2-G AP2 domain (GST-tagged)
# Assay: gcPBM binding intensity (ln(normalized median fluorescence intensity)); higher = stronger DNA binding
# Procedure, shortened: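 Each value is the highest Masliner-normalised natural-log median intensity across replicate spots of either orientation of a probe. The probes were primer-extended double-stranded 36-bp intergenic genomic sequences on an Agilent 4 × 180k array, alongside negative controls, exposed for 1 h to GST-tagged P. falciparum DNA-binding domains expressed in E. coli. Bound protein was picked up with Alexa488 anti-GST antibody and scanned at 488 nm.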
row,Sequence,gcPBM binding intensity (ln)
1,AATTAAATTCGGTACTGTACATTTCAAAAATATACG [XGTACX_site48],11.1 ± 0.7
2,TATACATATTTTTTTTGTACATATATAATATATATA [XGTACX_site2399],10.9 ± 0.52
3,GGGAAAAAAAAAAGCACACATACGTAAATATATAAC [CACACA_site226],10.2 ± 0.22
4,CTTAAATTTTACTGAAGTACAAAATCGGTTCAATGA [XGTACX_site3292],11 ± 0.72
5,CACTACACTGTTAATAGTACATATATTTAAAAAAAA [XGTACX_site7371],11.1 ± 0.61
6,ATGAATAAATAGGTCACACACAAATATATATAAATA [CACACA_site2416],10.5 ± 0.32
7,TTGTTCGATATATGCACACAGTTTTGTTATTTTTCC [CACACA_site4972],10.135 ± 0.007
8,TACAAATTTATATAAAGTACAAAAAATAATAAAAAT [XGTACX_site7355],11.1 ± 0.57
9,AAAAAAAAAAAAAGTGCACACATAAAAATATGATCT [CACACA_site8090],10.7 ± 0.57
10,ACATATGTTTTATGTAGTACTTATTTATTATTATAT [XGTACX_site7528],11.3 ± 0.6
11,AAAAAAAACGGACACACACACATAAATATATATAAA [CACACA_site4260],11.3 ± 1.1
12,AAAAGGTATAGAAACACACACACGTGAATATAGTTT [CACACA_site1905],9.93 ± 0.14
13,CACACCCACCAACACACACACAAAAAAAAAAAGAAA [CACACA_site500],10.3 ± 0.7
14,ATATTTTATTTTAATACACACAAGTTATATAATCAC [CACACA_site780],10.01 ± 0.099
15,TACATTTTACTTGTTACACACATATAAAATTAACCA [CACACA_site2922],10.2 ± 0.18
16,AAACGTACATAATACACACACATGTATACCTATAAA [CACACA_site7051],11.3 ± 1.1
17,TCAAATAATAAGTATGCATGCTATATTTATATATAC [TGCATGCA_site920],9.75 ± 0.057
18,AGAAAAAAAAAAAGTACACACATATAATATATATAT [CACACA_site2973],11.6 ± 1.2
19,AGTTAATGAATAGGCACACATATATCTGTATAAATA [CACACA_site4448],10.1 ± 0.11
20,CATATATATTTGTTCACACACACACTAGAAAAAAAA [CACACA_site5380],10.4 ± 0.26
21,TAAAAAAATAAATATACACACATATATATATATATA [CACACA_site1089],10.1 ± 0.78
22,TGTAGAAATGGGTGCACACACATATAAAATCTATAT [CACACA_site7224],10.7 ± 0.68
23,GGATTTATTATATATACACACATACAGATATATATA [CACACA_site5222],9.96
24,TCATTAAAAACTAAAAGTACTCAATATTATGAACAT [XGTACX_site7807],11.2 ± 0.64
25,ATAAAAAATAAAATAAATAAAAAATATTTACCCTTA [TGCATGCA_negctrl_site396],9.43 ± 0.21
